# Measurements: the supplement of paper PMC8728848
# The list shows a part of the results.
# Key:
# Assay in all cases: glycan array binding signal (z-score within array); higher = stronger binding
# Conditions in all cases: glycan notation: IUPAC condensed, linker removed
# [1] = target: Fuc(a1-2)Gal
# Outline: (§1)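 Negative Z-scores can be read as non-binding. The Z-score is calculated within each array and then averaged across arrays of one protein sequence at different concentrations or buffers and across linkers. Arrays, 3228 in all, were curated from the Consortium for Functional Glycomics database and kept only where the protein sequence was available.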
# [2] = target: Fuc(a1-2)Gal(b1-3)GalNAc
# Outline: as §1
# [3] = target: Fuc(a1-2)Gal(b1-3)GalNAc(b1-3)Gal
# Outline: as §1
# [4] = target: Fuc(a1-2)Gal(b1-3)GalNAc(b1-3)Gal(a1-4)Gal(b1-4)Glc
# Outline: as §1
# [5] = target: Fuc(a1-2)Gal(b1-3)GalNAc(b1-4)[Neu5Ac(a2-3)]Gal(b1-4)Glc
# Outline: as §1
# [6] = target: Fuc(a1-2)Gal(b1-3)GlcNAc
# Outline: as §1
# [7] = target: Fuc(a1-2)Gal(b1-3)GlcNAc(b1-3)Gal(b1-4)Glc
# Outline: as §1
# [8] = target: Fuc(a1-2)Gal(b1-3)[Fuc(a1-4)]GlcNAc
# Outline: as §1
# [9] = target: Fuc(a1-2)Gal(b1-4)Glc
# Outline: as §1
# [10] = target: Fuc(a1-2)Gal(b1-4)Glc6S
# Outline: as §1
# [11] = target: Fuc(a1-2)Gal(b1-4)GlcNAc
# Outline: as §1
# [12] = target: Fuc(a1-2)Gal(b1-4)GlcNAc(b1-3)Gal(b1-4)GlcNAc
# Outline: as §1
# [13] = target: Fuc(a1-2)Gal(b1-4)GlcNAc(b1-3)Gal(b1-4)GlcNAc(b1-3)Gal(b1-4)GlcNAc
# Outline: as §1
# [14] = target: Fuc(a1-2)Gal(b1-4)GlcNAc6S
# Outline: as §1
# [15] = target: Fuc(a1-2)Gal(b1-4)[Fuc(a1-3)]GlcNAc
# Outline: as §1
# [16] = target: Fuc(a1-2)Gal(b1-4)[Fuc(a1-3)]GlcNAc(b1-3)Gal(b1-4)[Fuc(a1-3)]GlcNAc
# Outline: as §1
# [17] = target: Fuc(a1-2)Gal(b1-4)[Fuc(a1-3)]GlcNAc(b1-3)Gal(b1-4)[Fuc(a1-3)]GlcNAc(b1-3)Gal(b1-4)[Fuc(a1-3)]GlcNAc
# Outline: as §1
# [18] = target: Fuc(a1-2)Gal6S(b1-4)Glc
# Outline: as §1
# [19] = target: Fuc(a1-2)Gal6S(b1-4)Glc6S
# Outline: as §1
# [20] = target: Fuc(a1-2)Gal6S(b1-4)GlcNAc
# Outline: as §1
# [21] = target: Fuc(a1-2)[Gal(a1-3)]Gal
# Outline: as §1
# [22] = target: Fuc(a1-2)[Gal(a1-3)]Gal(b1-3)GlcNAc
# Outline: as §1
# [23] = target: Fuc(a1-2)[Gal(a1-3)]Gal(b1-4)Glc
# Outline: as §1
# [24] = target: Fuc(a1-2)[Gal(a1-3)]Gal(b1-4)GlcNAc
# Outline: as §1
# [25] = target: Fuc(a1-2)[Gal(a1-3)]Gal(b1-4)[Fuc(a1-3)]GlcNAc
# Outline: as §1
# [26] = target: Fuc(a1-2)[Gal(a1-4)]Gal(b1-4)GlcNAc
# Outline: as §1
# [27] = target: Fuc(a1-2)[GalNAc(a1-3)]Gal
# Outline: as §1
# [28] = target: Fuc(a1-2)[GalNAc(a1-3)]Gal(b1-3)GlcNAc
# Outline: as §1
# [29] = target: Fuc(a1-2)[GalNAc(a1-3)]Gal(b1-4)Glc
# Outline: as §1
# [30] = target: Fuc(a1-2)[GalNAc(a1-3)]Gal(b1-4)GlcNAc
# Outline: as §1
# [31] = target: Fuc(a1-2)[GalNAc(a1-3)]Gal(b1-4)[Fuc(a1-3)]GlcNAc
# Outline: as §1
# [32] = target: Fuc(a1-2)[GalNAc(a1-4)]Gal(b1-4)GlcNAc
# Outline: as §1
# [33] = target: Fuc(a1-2)[GalNAc(b1-3)]Gal
# Outline: as §1
# [34] = target: Fuc(a1-3)GlcNAc
# Outline: as §1
# [35] = target: Fuc(a1-3)[Gal(b1-4)]Glc6S
# Outline: as §1
# [36] = target: Fuc(a1-3)[Gal(b1-4)]GlcNAc
# Outline: as §1
# [37] = target: Fuc(a1-3)[Gal(b1-4)]GlcNAc(b1-2)Man(a1-3)[Fuc(a1-3)[Gal(b1-4)]GlcNAc(b1-2)Man(a1-6)]Man(b1-4)GlcNAc(b1-4)GlcNAc
# Outline: as §1
# [38] = target: Fuc(a1-3)[Gal(b1-4)]GlcNAc(b1-2)Man(a1-6)[Gal(b1-4)GlcNAc(b1-2)Man(a1-3)]Man(b1-4)GlcNAc(b1-4)GlcNAc
# Outline: as §1
# [39] = target: Fuc(a1-3)[Gal(b1-4)]GlcNAc(b1-3)Gal(b1-3)[Fuc(a1-4)]GlcNAc
# Outline: as §1
# [40] = target: Fuc(a1-3)[Gal(b1-4)]GlcNAc(b1-4)Gal(b1-4)[Fuc(a1-3)]GlcNAc
# Outline: as §1
# [41] = target: Fuc(a1-3)[Gal(b1-4)]GlcNAc(b1-4)Gal(b1-4)[Fuc(a1-3)]GlcNAc(b1-4)Gal(b1-4)[Fuc(a1-3)]GlcNAc
# Outline: as §1
# [42] = target: Fuc(a1-3)[Gal(b1-4)]GlcNAc6S
# Outline: as §1
# [43] = target: Fuc(a1-3)[Gal3S(b1-4)]Glc6S
# Outline: as §1
# [44] = target: Fuc(a1-3)[Gal3S(b1-4)]GlcNAc
# Outline: as §1
# [45] = target: Fuc(a1-3)[Gal3S(b1-4)]GlcNAc6S
# Outline: as §1
binder,measurement,setting,value
Surfactant Protein D (Human); Neck + Carbohydrate Recognition Domain (NCRD) (Homo sapiens) (protein) MLLFLLSALVLLTQPLGYLEAEMKTYSHRTMPSACTLVMCSSVESGLPGRDRDGREGPRGEKGDPGLPGAAGQAGMPGQAGPVGPKGDNGSVGEPGPKGDTGPSGPPGPPGVPGPAGREGALGKQGNIGPQGKPGPKGEAGPKGEVGAPGMQGSAGARGLAGPKGERGVPGERGVPGNTGAAGSAGAMGPQGSPGARGPPGLKGDKGIPGDKGAKGESGLPDVASLRQQVEALQGQVQHLQAAFSQYKKVELFPNGQSVGEKIFKTAQFVKPFTEAQLLCTQAGGQLASPRSAAENAALQQLVVAKNEAAFLSMTDSKTEGKFTYPTGESLVYSNWAPGEPNDDGGSEDCVEIFTNGKWNDRACGEKRLVVCEF,glycan array binding signal (z-score),[1],-0.24
same,glycan array binding signal (z-score),[2],-0.263
same,glycan array binding signal (z-score),[3],0.427
same,glycan array binding signal (z-score),[4],-0.283
same,glycan array binding signal (z-score),[5],-0.16
same,glycan array binding signal (z-score),[6],-0.162
same,glycan array binding signal (z-score),[7],-0.227
same,glycan array binding signal (z-score),[8],-0.286
same,glycan array binding signal (z-score),[9],-0.245
same,glycan array binding signal (z-score),[10],-0.191
same,glycan array binding signal (z-score),[11],-0.237
same,glycan array binding signal (z-score),[12],-0.234
same,glycan array binding signal (z-score),[13],-0.195
same,glycan array binding signal (z-score),[14],-0.171
same,glycan array binding signal (z-score),[15],-0.252
same,glycan array binding signal (z-score),[16],-0.256
same,glycan array binding signal (z-score),[17],-0.128
same,glycan array binding signal (z-score),[18],-0.237
same,glycan array binding signal (z-score),[19],-0.114
same,glycan array binding signal (z-score),[20],-0.266
same,glycan array binding signal (z-score),[21],-0.228
same,glycan array binding signal (z-score),[22],-0.277
same,glycan array binding signal (z-score),[23],-0.285
same,glycan array binding signal (z-score),[24],-0.235
same,glycan array binding signal (z-score),[25],-0.183
same,glycan array binding signal (z-score),[26],-0.272
same,glycan array binding signal (z-score),[27],-0.261
same,glycan array binding signal (z-score),[28],-0.247
same,glycan array binding signal (z-score),[29],-0.26
same,glycan array binding signal (z-score),[30],-0.276
same,glycan array binding signal (z-score),[31],-0.198
same,glycan array binding signal (z-score),[32],-0.202
same,glycan array binding signal (z-score),[33],-0.217
same,glycan array binding signal (z-score),[34],0.074
same,glycan array binding signal (z-score),[35],-0.196
same,glycan array binding signal (z-score),[36],-0.26
same,glycan array binding signal (z-score),[37],-0.211
same,glycan array binding signal (z-score),[38],-0.27
same,glycan array binding signal (z-score),[39],-0.257
same,glycan array binding signal (z-score),[40],-0.029
same,glycan array binding signal (z-score),[41],-0.273
same,glycan array binding signal (z-score),[42],-0.256
same,glycan array binding signal (z-score),[43],-0.17
same,glycan array binding signal (z-score),[44],-0.267
same,glycan array binding signal (z-score),[45],-0.123
